# Out of some 43,000 compounds screened, about 200 (0.47%) were called active. Roughly 12% stayed inconclusive and do not appear here. The call rests on the fitted dose curve; in most records, active means well fitted cell-killing curve with a large enough effect; inconclusive means small, poorly fitted or top-dose-only effect, or effect the other way; inactive means flat fitted curve, though single readings scatter. The list shows a part of the results.
# Assay: Cell viability qHTS assay in S16 Pmp22-F2sN cells; further: nearly all actives have a fitted effect of over 65% in size
# Settings: S16 Pmp22-F2sN Schwann cells (luciferase reporters placed in the Pmp22 gene) viability, CellTiter-Glo, 24 h; series mostly up to 57.5 µM; activity change, negative = cytotoxicity: at the top concentration
# Summary of the method: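 S16 Schwann cells carrying the Pmp22-F2sN reporter, seeded in 1536-well format, were exposed to library compounds for 24 h at 37C. Viability was read as CellTiter-Glo luminescence after 15 min at room temperature.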
# On the % scale 0 is the no-effect control and ±100 the full control effect.
row,SMILES,"activity change, negative = cytotoxicity"
1,Cc1ccc(N2C(=O)CCSC23C(=O)N(Cc2ccccc2)c2ccccc23)cc1 (stereo not drawn),inactive: -19.9%
2,Cn1c(=O)c(C(=O)O)nn(-c2ccccc2)c1=O,inactive: 18.5%
3,CCC(=O)NCCc1nc2cc(NC(=O)c3cccc(Br)c3)ccc2n1C,inactive: -14.7%
4,CCOc1ccc(CNC(=O)CSc2nnc(C)c3c(C)n(-c4ccc(Cl)cc4)nc23)cc1,inactive: 3.81%
5,CCN(CC)CCSc1c(C(C)C)cnc2c1c(=O)n(C)c(=O)n2C,inactive: 11.4%
6,COc1cc(NC(=O)N2CCc3c(sc4c3CCCC4)C2c2ccccc2)cc(OC)c1OC (stereo not drawn),inactive: -3.71%
7,COc1ccc(OC)c2sc(N3CCN(C(=O)c4ccco4)CC3)nc12,inactive: 1.06%
8,CC(C)(C)NC(=O)C1CCN(c2nc3ccccc3nc2C(F)(F)F)CC1,inactive: -25.8%
9,CCCCc1nnc(SCc2cc(=O)c3cc(F)ccc3[nH]2)n1C,inactive: -7.14%
10,CCN(CC)C(=O)c1c(NC(=O)c2cccc(C)c2)sc2c1CCC(C)C2 (stereo not drawn),inactive: 1.43%
11,Cc1ccc(NC(=O)c2sc3nc(-c4cccs4)ccc3c2N)cc1F,inactive: 7.58%
12,O=c1[nH]c2cc(Br)ccc2n2cccc12,inactive: -25%
13,O=C(c1cnc(N2CCOCC2)c2ccccc12)N1CCN(c2ccccc2)CC1,inactive: -2.73%
14,COc1ccc(CNC(=O)CN2C(=O)CC(c3ccc(C)c(C)c3)=Nc3ccccc32)cc1,inactive: -0.521%
15,COc1ccc(C(=O)NCCn2cc(SCc3c(F)cccc3Cl)c3ccccc32)cc1,inactive: -7.95%
16,Cc1ccc(-n2ncc3c(NC4CCCCCC4)ncnc32)cc1,inactive: 11.8%
17,COc1ccc(-n2c(SCc3ccccc3)nc3c([nH]c4ccccc43)c2=O)cc1,inactive: 5.31%
18,COc1cccc(CNC(=O)Cn2nc(N3CCN(c4ccccc4OC)CC3)ccc2=O)c1,inactive: -6.86%
19,CCOc1ccc(-n2c(=O)c3c(C)c(C)sc3n(Cc3ccccc3C)c2=O)cc1,inactive: 6.95%
20,COc1ccc(C)cc1NC(=O)CN1C(=O)COc2ccc(S(=O)(=O)N3CCC(C)CC3)cc21,inactive: 2.66%
21,Cc1c(Cl)cccc1NC(=O)C(C)n1c(=O)cc(C)c2c(C)nn(-c3ccccc3)c21 (stereo not drawn),inactive: 5.5%
22,CCCCOc1ccc(C2C(=O)N(C3CCCCC3)CC(=O)N2CCCC)cc1 (stereo not drawn),inactive: -4.52%
23,Cc1cc(C)cc(C(=O)N2CC(=O)Nc3ccc(Br)cc3C2c2ccccc2)c1 (stereo not drawn),inactive: 4.92%
24,Cc1ccc(NC(=O)Cn2c(-c3nonc3N)nc3ccccc32)c(Br)c1,inactive: -0.232%
25,COc1cccc(CNC(=O)CCc2c(C)c3ccc(O)c(C)c3oc2=O)c1,inactive: 15%
26,CCOC(=O)c1noc2ncn(CC(=O)Nc3ccccc3OC)c(=O)c12,inactive: 11.6%
27,CN1C(=O)c2[nH]nc(-c3ccc(F)cc3)c2C1c1cccc(O)c1 (stereo not drawn),inactive: 0.0186%
28,Cn1cc(-c2cc3n(n2)CCC(=O)N3CCCC(=O)NCc2ccccc2Cl)c2ccccc21,inactive: -2.54%
